Measured values published in PubChem BioAssay AID743262 (National Center for Advancing Translational Sciences (NCATS), 2014).
The campaign covered roughly 1,300 compounds. About 25 (2%) were called active. Another 9% or so got no clear call; they are omitted. The call rests on the fitted dose curve; in most records, active means well fitted activation curve with a large enough effect; inconclusive means small, poorly fitted or top-dose-only effect; inactive means flat fitted curve, though single readings scatter. The list shows a part of the results.

Each molecule was assayed against Glucagon-like peptide 1 receptor (Homo sapiens) (UniProt P43220) (assay: qHTS of GLP-1 Receptor Agonists: Hit Validation). Conditions: HEK293 GLP-1R, cAMP-response luciferase, 4-6 h; series mostly up to 46.1 µM; activation: at the top concentration.
Method in brief: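 Luminescence from a cAMP-responsive luciferase reporter was read 12 min after detection reagent at RT. Before that, HEK293 cells stably expressing GLP-1R plus reporter, seeded 12 h earlier, were exposed to compound for 4-6 hr at 37 deg C.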
Further: % of control where 0% means no effect.

UniProt P43220, sequence (P43220 whole entry, looked up): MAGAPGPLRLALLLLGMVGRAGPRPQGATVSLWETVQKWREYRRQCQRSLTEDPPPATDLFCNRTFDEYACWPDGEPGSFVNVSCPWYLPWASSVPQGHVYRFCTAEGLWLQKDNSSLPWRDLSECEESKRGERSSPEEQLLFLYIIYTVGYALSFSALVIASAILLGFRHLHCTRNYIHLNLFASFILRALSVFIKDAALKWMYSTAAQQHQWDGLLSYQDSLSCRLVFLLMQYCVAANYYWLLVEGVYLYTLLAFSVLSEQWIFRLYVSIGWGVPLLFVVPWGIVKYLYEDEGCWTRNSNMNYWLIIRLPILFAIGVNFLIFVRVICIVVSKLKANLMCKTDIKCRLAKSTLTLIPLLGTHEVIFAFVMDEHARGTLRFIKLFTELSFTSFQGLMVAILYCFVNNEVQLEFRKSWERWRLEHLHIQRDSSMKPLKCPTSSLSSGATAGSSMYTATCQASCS

SMILES	activation
COc1cc(/C=C2\CC/C(=C\c3ccc(OCCO)c(OC)c3)C2=O)ccc1OCCO	inactive: 16%
Cc1cccc(NC2=NCC(=O)N2Cc2ccccc2)c1	inactive: 1.4%
Cc1cc(C)c(C)c(S(=O)(=O)Nc2cccc(-n3cnnn3)c2)c1C	inactive: -0.249%
COc1cc(/C=C2\S/C(=N/S(=O)(=O)c3ccccc3)NC2=O)c([N+](=O)[O-])cc1OC	inactive: 5.68%
CCCCn1cnc2c(SCc3ccc(Br)cc3)nc(N)nc21	inactive: 14%
Nc1c2c(nc3sc4c(c13)CCCC4)-c1ccccc1CC2	inactive: 7.69%
COc1ccc(/C=C2\Sc3ccc(C(=O)NC4CC4)cc3N(C)C2=O)cc1OC	inactive: 24.1%
CCOc1ccc(-n2c(-c3ccccc3)c(C)n3c4c(=O)n(C)c(=O)n(C)c4nc23)cc1	inactive: -0.209%
COc1ccc(CCn2c(N)cc(=O)[nH]c2=S)cc1OC	inactive: 14.7%
Cc1cc(C(F)F)n2ncc(C(=O)NCc3ccc(F)cc3)c2n1	inactive: 5.01%
CCOC(=O)c1c(C)[nH]c(C2=NNC(=NC(C)COC)SC2)c1C (stereo not drawn)	inactive: -0.776%
Cc1cc(Cl)c2oc(C(=O)N(C)Cc3cc(C)[nH]n3)c(C)c2c1	inactive: 22.9%
CCCCN(CC)C(=O)c1cc2cc3ccc(Cl)cc3nc2o1	inactive: 7.33%
CN(C)CCNc1ncnc2c1sc1nc(N3CCCC3)c3c(c12)CC(C)(C)OC3	inactive: 18.5%
Cc1ccc(NC(=O)Nc2ccc([N+](=O)[O-])cc2)nc1	inactive: -0.803%
COc1ccc(OC)c(/C=N/NC(=S)NCCc2ccccc2)c1	inactive: 5.93%
Cn1c2ccc(F)cc2c2ncn(Cc3ccco3)c(=O)c21	inactive: 6.87%
COc1ccccc1C/C(N)=N/OC(=O)c1ccc(C)c([N+](=O)[O-])c1	inactive: 27.5%
COc1ccc(S(=O)(=O)N2CCOC2CNC(=O)C(=O)NCCc2ccc(OC)c(OC)c2)cc1 (stereo not drawn)	inactive: 7.95%
CCOC(=O)c1c(C)[nH]c(C(=O)OCc2c(C)noc2C)c1C	inactive: 5.11%

SMILES	activation
O=C(COc1ccccc1Br)Nc1ccc2c(c1)OCCCO2	inactive: 2.18%
CCOC(=O)/C(=C/C=C1\Sc2ccccc2N1CC)C(C)=O	inactive: 16.3%
C=C(Cl)COc1ccc2c(CCC)cc(=O)oc2c1	inactive: 3.86%
CC(C)N(C)c1ncnc2c1ncn2[C@H]1CN(Cc2cccs2)C[C@@H](CO)O1	inactive: 8.33%
COc1cc(/C=C2\SC(=Nc3ccc(O)cc3)NC2=O)cc(OC)c1O	inactive: 21.7%
Cc1ccccc1Oc1nc2ccccn2c(=O)c1/C=C(\C#N)C(=O)Nc1c(C)n(C)n(-c2ccccc2)c1=O	inactive: 26.3%
CCN1CCN(c2nc3sc4c(c3c3ncnn23)CC(C)CC4)CC1 (stereo not drawn)	inactive: 5.78%
COCCn1c(=O)[nH]c(=O)c2c1nc(-c1cc(Br)c3c(c1)OCO3)n2Cc1ccccc1	inactive: 5.91%
CN(c1ccccc1)c1nc(N)c([N+](=O)[O-])c(NCc2ccccc2)n1	inactive: 15.6%
C[C@@H](c1ncncc1F)C(O)(Cn1cncn1)c1ccc(F)cc1F (stereo partly drawn)	inactive: -0.544%
CCCCn1cnc2c(SCc3ccc(Cl)cc3)nc(N)nc21	inactive: 12.5%
O=S(=O)(c1ccc(Br)cc1)c1nc(-c2ccco2)oc1NCCCn1ccnc1	inactive: 0.267%
OC(CNCc1ccc(Cl)c(Cl)c1)c1ccccc1 (stereo not drawn)	inactive: 20%
COc1ccccc1Cc1c(-c2ccc(OC)c(OC)c2)nc2ccc(C)cn12	inactive: 9.89%
Cc1ccc(NC(=O)Cc2nc(COC(=O)c3c(F)cccc3Cl)cs2)cc1	inactive: 0.626%
COc1cc(Cl)c(C)cc1NC(=O)CN(C)Cc1cccc(OC)c1OC	inactive: 3.34%
O=C(NCc1ccc(F)cc1)c1cc(C2CCCN(C(=O)c3cccs3)C2)on1 (stereo not drawn)	inactive: 2.19%
CC(C)OCCCNCC(O)c1ccccc1 (stereo not drawn)	inactive: 16.5%
COc1ccc(-c2nc(C#N)c(N3CCCCCC3)o2)cc1OC	inactive: 23.8%
CC1(C)CCc2cc(-c3ccn(S(=O)(=O)c4ccccc4Cl)n3)ccc2O1	inactive: 2.77%

SMILES	activation
C=C(C)COc1ccc2c(CC)cc(=O)oc2c1C	inactive: 5.78%
COc1cccc(-c2cnc3c(NC=O)cc(-c4ccc(N(C)C)cc4)cn23)c1	inactive: 27.5%
O=C1CC(c2ccc(F)cc2)Sc2ccccc2N1 (stereo not drawn)	inactive: 2.5%
Cc1ccc(-c2nnc3c4ccccc4c(C)nn23)cc1S(=O)(=O)N1CCN(CCO)CC1	inactive: 23.3%
CCOC(=O)C(C)Sc1nc(-c2ccccc2)ccc1C#N (stereo not drawn)	inactive: 5.89%
CCN(CC)CCNc1ncnc2c1sc1nc(N3CCCC3)c3c(c12)CC(C)(C)OC3	inactive: 21.4%
CCN(CC)/C(=N\S(=O)(=O)c1ccc(F)cc1)c1ccccc1	inactive: -0.814%
COC(=O)C1=CN(Cc2ccc(OC)c(OC)c2)C=C(C(=O)OC)C1c1cccc(F)c1	inactive: 2.23%
COc1ccccc1Nc1nc(Cl)nc(Nc2ccccc2OC)n1	inactive: 7.81%
O=C(O)c1cccc(CSc2ncccn2)c1	inactive: -1.14%
CCN1/C(=C/C(=S)Nc2ccccc2)Sc2ccccc21	inactive: 1.16%
c1ccc(Cn2c(-c3cncs3)nc3ccccc32)cc1	inactive: 2.44%
COc1cccc(-n2c(SCC(=O)Nc3c(C)cc(C)cc3C)nc3c([nH]c4ccccc43)c2=O)c1	inactive: 2.93%
COc1ccc(C(N)c2nccc3cc(OC)c(OC)cc23)cc1OC (stereo not drawn)	inactive: 9.93%
CN(C)CCNC(=O)c1cccc(-c2cnc3c(NC=O)cc(-c4cccc(F)c4)cn23)c1	inactive: 7.6%
COC(=O)[C@@H]1CCCN1C(=O)c1cc(COc2cccc3cccnc23)on1	inactive: -0.35%
CCn1c(SCC(=O)N/N=C/c2ccc(OC)c(OC)c2)nc2ccccc21	inactive: 18.6%
COc1ccc(CN(C)C(=O)c2oc3ccccc3c2CSC)cc1F	inactive: 5.49%
